Assay results as given in PMC3720919, “Mcm10 Self-Association Is Mediated by an N-Terminal Coiled-Coil Domain” (PLoS ONE, 2013).
Changes are numbered by the printed parent chain. Names and notes keep the numbering of the source. Results are given in words; binding and its absence hold for the method and conditions named. Some entries that bind do so weakly or less than the wild type. For part of these data: Where a sequence is shown, tags or fusion partners need not be part of it.

Columns and labels:
[1] = molecular target: T1, Full-length xMcm10, yeast two-hybrid fusion (Xenopus laevis) (UniProt Q5EAW4); test: two-hybrid; Matchmaker 3, Gal4-binding domain baits (pGBKT7) and Gal4-activation domain preys (pGADT7) in AH109; scored on plates lacking adenine, leucine, histidine and tryptophan
T1 sequence: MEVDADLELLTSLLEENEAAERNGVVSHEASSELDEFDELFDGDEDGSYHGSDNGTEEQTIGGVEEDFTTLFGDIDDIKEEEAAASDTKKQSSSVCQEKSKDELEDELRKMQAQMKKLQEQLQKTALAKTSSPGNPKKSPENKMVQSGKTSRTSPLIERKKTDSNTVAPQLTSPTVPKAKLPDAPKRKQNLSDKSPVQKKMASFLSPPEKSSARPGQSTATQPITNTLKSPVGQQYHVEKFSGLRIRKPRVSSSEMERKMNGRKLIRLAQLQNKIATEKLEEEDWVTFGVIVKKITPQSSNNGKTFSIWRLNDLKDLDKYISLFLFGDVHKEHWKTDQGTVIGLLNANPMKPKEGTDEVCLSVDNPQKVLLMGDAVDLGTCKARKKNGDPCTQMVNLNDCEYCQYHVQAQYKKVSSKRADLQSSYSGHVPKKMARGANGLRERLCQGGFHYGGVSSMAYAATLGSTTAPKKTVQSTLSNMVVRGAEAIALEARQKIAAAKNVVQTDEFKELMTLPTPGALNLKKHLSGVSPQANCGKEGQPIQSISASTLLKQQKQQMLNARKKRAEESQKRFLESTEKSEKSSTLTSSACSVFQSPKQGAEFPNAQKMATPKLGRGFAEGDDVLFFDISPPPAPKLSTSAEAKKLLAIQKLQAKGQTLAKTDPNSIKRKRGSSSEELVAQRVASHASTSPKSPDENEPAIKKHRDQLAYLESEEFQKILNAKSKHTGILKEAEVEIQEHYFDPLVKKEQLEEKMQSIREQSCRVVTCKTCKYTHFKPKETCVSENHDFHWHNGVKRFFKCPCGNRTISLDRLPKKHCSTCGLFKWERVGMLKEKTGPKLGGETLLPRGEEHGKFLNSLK

[2] = molecular target: Mcm10ΔN (aa 230-860) (Xenopus laevis) (UniProt Q5EAW4); test: SEC-MALS; Superose6 10/300 GL, 0.4 ml/min, 25 mM Tris pH 7.5, 150 mM NaCl, 2% glycerol, 2 mM BME; both purified
[3] = molecular target: Mcm10ΔN (aa 230-860) (Xenopus laevis) (UniProt Q5EAW4); test: AUC; sedimentation velocity, 42,000 rpm, 4°C; Mcm10ΔN 1.0 mg/ml in 25 mM Tris pH 7.5, 150 mM NaCl, 2 mM MgCl2, 5% glycerol, 4 mM BME; both purified
[4] = molecular target: MBP-CC 95-124 L104D/L108D (2D mutant) (Xenopus laevis) (UniProt Q5EAW4); test: AUC; sedimentation velocity of wild-type, 2D and 4A MBP-CC 95-124 and NTD (Figure 5), 42,000 rpm, 20°C, 0.6 mg/ml; which of the two buffers (pH 7.4 or pH 4.7) is not stated for this figure; both purified
[5] = molecular target: MBP-CC 95-124 L104A/L108A/M115A/L118A (4A mutant) (Xenopus laevis) (UniProt Q5EAW4); test: as above
[6] = molecular target: Mcm10-NTD (aa 1-145) (Xenopus laevis) (UniProt Q5EAW4); test: as above
[7] = molecular target: Mcm10-NTD (aa 1-145) L104D/L108D (2D mutant) (Xenopus laevis) (UniProt Q5EAW4); test: as above
[8] = molecular target: Mcm10-NTD (aa 1-145) L104A/L108A/M115A/L118A (4A mutant) (Xenopus laevis) (UniProt Q5EAW4); test: as above
[9] = molecular target: MBP-CC 95-124 (xMcm10 residues 95-124 fused to maltose binding protein) (Xenopus laevis) (UniProt Q5EAW4); test: as above

B1: Full-length xMcm10, yeast two-hybrid fusion (protein, UniProt Q5EAW4 1-860)
chain: T1 sequence
- binding [1]: binds

B2: Mcm10^4A (full-length xMcm10 L104A/L108A/M115A/L118A), yeast two-hybrid fusion (protein, UniProt Q5EAW4 1-860)
chain: T1 sequence with L104A, L108A, M115A, L118A
- binding [1]: no binding

B3: Mcm10^2D (full-length xMcm10 L104D/L108D), yeast two-hybrid fusion (protein, UniProt Q5EAW4 1-860)
chain: T1 sequence with L104D, L108D
- binding [1]: no binding

B4: Mcm10ΔN (aa 230-860) (domain or fragment, UniProt Q5EAW4 230-860)
chain: SPVGQQYHVEKFSGLRIRKPRVSSSEMERKMNGRKLIRLAQLQNKIATEKLEEEDWVTFGVIVKKITPQSSNNGKTFSIWRLNDLKDLDKYISLFLFGDVHKEHWKTDQGTVIGLLNANPMKPKEGTDEVCLSVDNPQKVLLMGDAVDLGTCKARKKNGDPCTQMVNLNDCEYCQYHVQAQYKKVSSKRADLQSSYSGHVPKKMARGANGLRERLCQGGFHYGGVSSMAYAATLGSTTAPKKTVQSTLSNMVVRGAEAIALEARQKIAAAKNVVQTDEFKELMTLPTPGALNLKKHLSGVSPQANCGKEGQPIQSISASTLLKQQKQQMLNARKKRAEESQKRFLESTEKSEKSSTLTSSACSVFQSPKQGAEFPNAQKMATPKLGRGFAEGDDVLFFDISPPPAPKLSTSAEAKKLLAIQKLQAKGQTLAKTDPNSIKRKRGSSSEELVAQRVASHASTSPKSPDENEPAIKKHRDQLAYLESEEFQKILNAKSKHTGILKEAEVEIQEHYFDPLVKKEQLEEKMQSIREQSCRVVTCKTCKYTHFKPKETCVSENHDFHWHNGVKRFFKCPCGNRTISLDRLPKKHCSTCGLFKWERVGMLKEKTGPKLGGETLLPRGEEHGKFLNSLK
- binding [2]: no binding
- binding [3]: no binding (tested: 1.0 mg/ml)

B5: Mcm10ΔN (residues 230-860), yeast two-hybrid fusion (domain or fragment, UniProt Q5EAW4 230-860)
chain: B4 chain
- binding [1]: no binding

Binder: VCQEKSKDEDEDEDRKMQAQMKKLQEQLQK (domain or fragment, UniProt Q5EAW4 95-124) [MBP-CC 95-124 L104D/L108D (2D mutant)]
- binding [4]: no binding (tested: 0.6 mg/ml)

Binder: VCQEKSKDEAEDEARKMQAQAKKAQEQLQK (domain or fragment, UniProt Q5EAW4 95-124) [MBP-CC 95-124 L104A/L108A/M115A/L118A (4A mutant)]
- binding [5]: no binding (tested: 0.6 mg/ml)

B6: Mcm10-NTD (aa 1-145) (domain or fragment, UniProt Q5EAW4 1-145)
chain: MEVDADLELLTSLLEENEAAERNGVVSHEASSELDEFDELFDGDEDGSYHGSDNGTEEQTIGGVEEDFTTLFGDIDDIKEEEAAASDTKKQSSSVCQEKSKDELEDELRKMQAQMKKLQEQLQKTALAKTSSPGNPKKSPENKMV
- binding [6]: binds

B7: Mcm10-NTD (aa 1-145) L104D/L108D (2D mutant) (domain or fragment, UniProt Q5EAW4 1-145)
chain: B6 chain with L104D, L108D
- binding [7]: no binding (tested: 0.6 mg/ml)

B8: Mcm10-NTD (aa 1-145) L104A/L108A/M115A/L118A (4A mutant) (domain or fragment, UniProt Q5EAW4 1-145)
chain: B6 chain with L104A, L108A, M115A, L118A
- binding [8]: no binding (tested: 0.6 mg/ml)

B9: MBP-CC 95-124 (xMcm10 residues 95-124 fused to maltose binding protein) (domain or fragment, Xenopus laevis, UniProt Q5EAW4 95-124, looked up)
chain: VCQEKSKDELEDELRKMQAQMKKLQEQLQK
notes: Mcm10, Xenopus laevis, coiled-coil region, residues 95-124 (95-122 in the final model); Trimer in the crystal; dimer in sedimentation velocity; MBPX(E) as in PDB 3H4Z; also called xMcm10-CC^95–124; wild-type CC; source: E. coli C41, purified (amylose resin, Superdex S200); not shown: MBP (mutant form MBPX(E) residues 1-367; uncleavable linker AAAMG), N-terminal, kept
- binding [9]: binds
